Laboratory results reported in patent US20250019440A1 (Zymeworks, published 2025).

B1: v39007 (other)
heavy 1: EVQLVESGGGLVQPGGSLRLSCAASGVTFNYYGMSWIRQAPGKGLEWVASITSSGGRIYYPDSVKGRFTISRENTQKTLYLQMNSLRAEDTAVYYCTLDGRDGWVAYWGQGTLVTVSSASTKGPSVFPLAPSSKSTSGGTAALGCLVKDYFPEPVTVSWNSGALTSGVHTFPAVLQSSGLYSLSSVVTVPSSSLGTQTYICNVNHKPSNTKVDKKVEPKSCDKTHTCPPCPAPEAAGGPSVFLFPPKPKDTLMISRTPEVTCVVVSVSHEDPEVKFNWYVDGVEVHNAKTKPREEQYNSTYRVVSVLTVLHQDWLNGKEYKCKVSNKALPAPIEKTISKAKGQPREPQVYVYPPSRDELTKNQVSLTCLVKGFYPSDIAVEWESNGQPENNYKTTPPVLDSDGSFALVSKLTVDKSRWQQGNVFSCSVMHEALHNHYTQKSLSLSPGGGGGSGQVQLVESGGGLVQPGGSLRLSCSVSGIDLSSNPMIWVRQAPGKGLQYIGIIDTDGSTYYADWAKGRFTISKDSTTVYLQINSPRAEDTAVYYCARRLHGSSNGYYDDLWGQGTLVTVSSGGGGSGGGGSGGGGSGGGGSDGQMTQSPSSVSASVGDRVTITCQASQSIYSYLSWYQQKPGQRPKLLIYKASTLASGVPSRFSGSGSGTDFTLTISSVQPEDFATYYCQQGYTVTNVDKNTFGGGTKVEIK
light: NFMLTQPHSVSESPGKTVTISCKRNTGNIGSNYVNWYQQHEGSSPTTIIYRNDKRPDGVSDRFSGSIDRSSKSASLTISNLKTEDEADYFCQSYSSGFIFGGGTKLTVLGQPKAAPSVTLFPPSSEELQANKATLVCLISDFYPGAVTVAWKADSSPVKAGVETTTPSKQSNNKYAASSYLSLTPEQWKSHRSYSCQVTHEGSTVEKTVAPTECSGGG[about 120 residues not shown]
heavy 2: QVQLVESGGGLVQPGGSLRLSCSVSGIDLSSNPMIWVRQAPGKGLQYIGIIDTDGSTYYADWAKGRFTISKDSTTVYLQINSPRAEDTAVYYCARRLHGSSNGYYDDLWGQGTLVTVSSGGGGSGGGGSGGGGSGGGGSDGQMTQSPSSVSASVGDRVTITCQASQSIYSYLSWYQQKPGQRPKLLIYKASTLASGVPSRFSGSGSGTDFTLTISSVQPEDFATYYCQQGYTVTNVDKNTFGGGTKVEIKAAEPKSSDKTHTCPPCPAPEAAGGPSVFLFPPKPKDTLMISRTPEVTCVVVSVSHEDPEVKFNWYVDGVEVHNAKTKPREEQYNSTYRVVSVLTVLHQDWLNGKEYKCKVSNKALPAPIEKTISKAKGQPREPQVYVLPPSRDELTKNQVSLLCLVKGFYPSDIAVEWESNGQPENNYLTWPPVLDSDGSFFLYSKLTVDKSRWQQGNVFSCSVMHEALHNHYTQKSLSLSPG
B2: v38441 (other)
heavy 1: [about 120 residues not shown]GGGSGQVQLVQSGAEVKKPGASVKVSCKASGYSFTGYTMNWVRQAPGQGLEWMGLITPYNGASSYNQKFRGKATMTVDTSTSTVYMELSSLRSEDTAVYYCARGGYDGRGFDYWGQGTLVTVSSASTKGPSVFPLAPSSKSTSGGTAALGCLVKDYFPEPVTVSWNSGALTSGVHTFPAVLQSSGLYSLSSVVTVPSSSLGTQTYICNVNHKPSNTKVDKKVEPKSCDKTHTCPPCPAPEAAGGPSVFLFPPKPKDTLMISRTPEVTCVVVSVSHEDPEVKFNWYVDGVEVHNAKTKPREEQYNSTYRVVSVLTVLHQDWLNGKEYKCKVSNKALPAPIEKTISKAKGQPREPQVYVLPPSRDELTKNQVSLLCLVKGFYPSDIAVEWESNGQPENNYLTWPPVLDSDGSFFLYSKLTVDKSRWQQGNVFSCSVMHEALHNHYTQKSLSLSPG
light: DIQMTQSPSSLSASVGDRVTITCSASSSVSYMHWYQQKSGKAPKLLIYDTSKLASGVPSRFSGSGSGTDFTLTISSLQPEDFATYYCQQWSKHPLTFGQGTKLEIKRTVAAPSVFIFPPSDEQLKSGTASVVCLLNNFYPREAKVQWKVDNALQSGNSQESVTEQDSKDSTYSLSSTLTLSKADYEKHKVYACEVTHQGLSSPVTKSFNRGEC
heavy 2: EVQLVESGGGLVQPGGSLRLSCAASGVTFNYYGMSWIRQAPGKGLEWVASITSSGGRIYYPDSVKGRFTISRENTQKTLYLQMNSLRAEDTAVYYCTLDGRDGWVAYWGQGTLVTVSSGGGGSGGGGSGGGGSGGGGSNFMLTQPHSVSESPGKTVTISCKRNTGNIGSNYVNWYQQHEGSSPTTIIYRNDKRPDGVSDRFSGSIDRSSKSASLTISNLKTEDEADYFCQSYSSGFIFGGGTKLTVLA[human IgG1 Fc with changes not shown]
B3: v38442 (other)
heavy 1: EVQLVESGGGLVQPGGSLRLSCAASGVTFNYYGMSWIRQAPGKGLEWVASITSSGGRIYYPDSVKGRFTISRENTQKTLYLQMNSLRAEDTAVYYCTLDGRDGWVAYWGQGTLVTVSSASTKGPSVFPLAPSSKSTSGGTAALGCLVKDYFPEPVTVSWNSGALTSGVHTFPAVLQSSGLYSLSSVVTVPSSSLGTQTYICNVNHKPSNTKVDKKVEPKSCDKTHTCPPCPAPEAAGGPSVFLFPPKPKDTLMISRTPEVTCVVVSVSHEDPEVKFNWYVDGVEVHNAKTKPREEQYNSTYRVVSVLTVLHQDWLNGKEYKCKVSNKALPAPIEKTISKAKGQPREPQVYVYPPSRDELTKNQVSLTCLVKGFYPSDIAVEWESNGQPENNYKTTPPVLDSDGSFALVSKLTVDKSRWQQGNVFSCSVMHEALHNHYTQKSLSLSPGGGG[about 120 residues not shown]
light: NFMLTQPHSVSESPGKTVTISCKRNTGNIGSNYVNWYQQHEGSSPTTIIYRNDKRPDGVSDRFSGSIDRSSKSASLTISNLKTEDEADYFCQSYSSGFIFGGGTKLTVLGQPKAAPSVTLFPPSSEELQANKATLVCLISDFYPGAVTVAWKADSSPVKAGVETTTPSKQSNNKYAASSYLSLTPEQWKSHRSYSCQVTHEGSTVEKTVAPTECS
heavy 2: DIQMTQSPSSLSASVGDRVTITCSASSSVSYMHWYQQKSGKAPKLLIYDTSKLASGVPSRFSGSGSGTDFTLTISSLQPEDFATYYCQQWSKHPLTFGQGTKLEIKGGGGSGGGGSGGGGSGGGGSQVQLVQSGAEVKKPGASVKVSCKASGYSFTGYTMNWVRQAPGQGLEWMGLITPYNGASSYNQKFRGKATMTVDTSTSTVYMELSSLRSEDTAVYYCARGGYDGRGFDYWGQGTLVTVSSAAEPKSSDKTHTCPPCPAPEAAGGPSVFLFPPKPKDTLMISRTPEVTCVVVSVSHEDPEVKFNWYVDGVEVHNAKTKPREEQYNSTYRVVSVLTVLHQDWLNGKEYKCKVSNKALPAPIEKTISKAKGQPREPQVYVLPPSRDELTKNQVSLLCLVKGFYPSDIAVEWESNGQPENNYLTWPPVLDSDGSFFLYSKLTVDKSRWQQGNVFSCSVMHEALHNHYTQKSLSLSPG
B4: v38443 (other)
heavy 1: DIQMTQSPSSLSASVGDRVTITCSASSSVSYMHWYQQKSGKAPKLLIYDTSKLASGVPSRFSGSGSGTDFTLTISSLQPEDFATYYCQQWSKHPLTFGQGTKLEIKGGGGSGGGGSGGGGSGGGGSQVQLVQSGAEVKKPGASVKVSCKASGYSFTGYTMNWVRQAPGQGLEWMGLITPYNGASSYNQKFRGKATMTVDTSTSTVYMELSSLRSEDTAVYYCARGGYDGRGFDYWGQGTLVTVSSGGGGSGEVQLVESGGGLVQPGGSLRLSCAASGVTFNYYGMSWIRQAPGKGLEWVASITSSGGRIYYPDSVKGRFTISRENTQKTLYLQMNSLRAEDTAVYYCTLDGRDGWVAYWGQGTLVTVSSASTKGPSVFPLAPSSKSTSGGTAALGCLVKDYFPEPVTVSWNSGALTSGVHTFPAVLQSSGLYSLSSVVTVPSSSLGTQTYICNVNHKPSNTKVDKK[human IgG1 Fc with changes not shown]
light: B3 light
heavy 2: [about 120 residues not shown][about 250 residues not shown]

Assays:
PD-L1 on cells = PD-L1 on cells (UniProt Q9NZQ7); assay: cell-based or functional assay
PD-L1 on cells, sequence (Q9NZQ7 19-290 limits assumed): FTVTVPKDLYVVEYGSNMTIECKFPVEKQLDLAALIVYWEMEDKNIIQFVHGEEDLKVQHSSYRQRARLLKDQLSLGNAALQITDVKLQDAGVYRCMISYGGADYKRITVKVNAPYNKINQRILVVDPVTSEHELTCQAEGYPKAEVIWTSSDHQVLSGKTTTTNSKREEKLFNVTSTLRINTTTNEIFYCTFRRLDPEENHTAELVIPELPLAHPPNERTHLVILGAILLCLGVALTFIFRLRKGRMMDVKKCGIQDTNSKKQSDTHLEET

Human CD3 (recombinant) = Human CD3 (recombinant) (human); assay: SPR, CD3 amine-coupled, variant as analyte, 1:1 model
Human CD3 (recombinant), sequence (chain, as listed by the source): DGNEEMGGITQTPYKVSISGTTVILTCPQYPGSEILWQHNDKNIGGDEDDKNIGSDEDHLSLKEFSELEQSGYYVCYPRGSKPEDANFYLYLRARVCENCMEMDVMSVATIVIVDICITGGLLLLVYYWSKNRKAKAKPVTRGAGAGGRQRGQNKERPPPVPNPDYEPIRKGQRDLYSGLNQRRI

Human PD-L1 = biological target: T1, Human PD-L1 (human, UniProt Q9NZQ7 part only); assay: SPR, PD-L1 amine-coupled, variant as analyte, 1:1 model
Human PD-L1, sequence (Q9NZQ7 19-239 limits assumed): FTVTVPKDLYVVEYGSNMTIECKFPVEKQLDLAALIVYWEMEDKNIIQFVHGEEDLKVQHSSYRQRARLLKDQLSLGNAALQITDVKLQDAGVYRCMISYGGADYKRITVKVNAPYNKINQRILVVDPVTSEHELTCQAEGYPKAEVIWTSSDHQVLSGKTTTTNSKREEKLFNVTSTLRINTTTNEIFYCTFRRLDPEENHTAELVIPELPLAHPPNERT
T1 construct: Amine-coupled to a CM5 chip for SPR; also called recombinant human PD-L1

Human mesothelin = biological target: T2, Human mesothelin (human, UniProt Q13421 296-580, limits assumed); assay: SPR, mesothelin amine-coupled, variant as analyte, 1:1 model
Human mesothelin, sequence (Q13421 other isoform, or with tags, fused parts or gaps limits assumed): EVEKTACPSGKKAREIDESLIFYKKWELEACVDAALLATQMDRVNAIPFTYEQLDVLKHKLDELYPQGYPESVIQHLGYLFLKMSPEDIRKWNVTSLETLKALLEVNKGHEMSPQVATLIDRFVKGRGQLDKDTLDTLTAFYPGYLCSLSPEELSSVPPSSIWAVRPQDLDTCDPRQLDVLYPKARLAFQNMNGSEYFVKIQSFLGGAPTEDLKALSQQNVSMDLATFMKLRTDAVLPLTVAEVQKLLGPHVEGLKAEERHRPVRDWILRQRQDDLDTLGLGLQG
T2 construct: Amine-coupled to a CM5 chip for SPR; also called MSLN; recombinant human mesothelin

Row | Binder | EC50 (read off the curve); hybrid PD-1/PD-L1 reporter gene assay, delta RLU, PD-1+ Jurkat T cells with SNU-620 cells, bottom right graph; composite signal of CD3 engagement and PD-1:PD-L1 blockade (PD-L1 on cells) [nM] | Kd (Human CD3 (recombinant)) [nM] | Kd (Human PD-L1) [nM] | Kd (Human mesothelin) [nM]
1 | B1 | ~0.01 |  |  | 
2 | B2 |  | 40 | 2.9 | 0.25
3 | B3 |  | 31 | 5.1 | 0.05
4 | B4 |  | 44 | 2.4 | 0.06
